Assay results from US20190330310A1 (VIB VZW, published 2019).

How the values were obtained:
HA-Tyk2(C)-RTp66 = target: T1, HA-Tyk2(C)-RTp66 (HIV-1); assay: luciferase reporter interaction assay in HEK293-T cells
T1 construct: also called pSVSport-HA-Tyk2(C)-RTp66; RTp66 kinase fusion construct

HA-Tyk2(C)-SERT = target: T2, HA-Tyk2(C)-SERT (human); assay: as above
T2 construct: Fusion protein expressed in transfected HEK293-T cells; also called pSVSport-HA-Tyk2(C)-SERT; SERT kinase fusion construct

B1: flag tag-gp130-VAMP2 (other)
chain: MDYKDDDDKISTVVHSGYRHQVPSVQVFSRSESTQPLLDSEERPEDLQLVDHVDGGDGILPRQQYFKQNCSQHESSPDISHFERSKQVSSVNEEDFVRLKQQISDHISQSCGSGQMKMFQEVSAADAFGPGTEGQVERFETVGMEAATDEGMPKSYLPQTVRQGGYMPQGGSELSTSLYKKVG[letters of about 120 residues not shown]YPTFLYKVV
notes: also called pMG1-VAMP2; pMG2-VAMP2
binding result (HA-Tyk2(C)-RTp66): no binding
binding result (HA-Tyk2(C)-SERT): binds
